# Experimental data taken from publication PMC4336329 (PLoS ONE, 2015).
# Screen size: about 310,000 compounds; about 14,000 (4.5%) showed an effect of 50% or more. Effects have a minus sign here. The list shows a part of the results.
# Molecular target: human ether-à-go-go-related gene (hERG) potassium channel (human, UniProt Q12809)
# Assay: primary screen, population patch clamp on CHO cells stably expressing hERG
# 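Note: peak tail current of the secondary pulse compared with the same well before compound.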
# Chain of human ether-à-go-go-related gene (hERG) potassium channel (Q12809 whole entry, looked up): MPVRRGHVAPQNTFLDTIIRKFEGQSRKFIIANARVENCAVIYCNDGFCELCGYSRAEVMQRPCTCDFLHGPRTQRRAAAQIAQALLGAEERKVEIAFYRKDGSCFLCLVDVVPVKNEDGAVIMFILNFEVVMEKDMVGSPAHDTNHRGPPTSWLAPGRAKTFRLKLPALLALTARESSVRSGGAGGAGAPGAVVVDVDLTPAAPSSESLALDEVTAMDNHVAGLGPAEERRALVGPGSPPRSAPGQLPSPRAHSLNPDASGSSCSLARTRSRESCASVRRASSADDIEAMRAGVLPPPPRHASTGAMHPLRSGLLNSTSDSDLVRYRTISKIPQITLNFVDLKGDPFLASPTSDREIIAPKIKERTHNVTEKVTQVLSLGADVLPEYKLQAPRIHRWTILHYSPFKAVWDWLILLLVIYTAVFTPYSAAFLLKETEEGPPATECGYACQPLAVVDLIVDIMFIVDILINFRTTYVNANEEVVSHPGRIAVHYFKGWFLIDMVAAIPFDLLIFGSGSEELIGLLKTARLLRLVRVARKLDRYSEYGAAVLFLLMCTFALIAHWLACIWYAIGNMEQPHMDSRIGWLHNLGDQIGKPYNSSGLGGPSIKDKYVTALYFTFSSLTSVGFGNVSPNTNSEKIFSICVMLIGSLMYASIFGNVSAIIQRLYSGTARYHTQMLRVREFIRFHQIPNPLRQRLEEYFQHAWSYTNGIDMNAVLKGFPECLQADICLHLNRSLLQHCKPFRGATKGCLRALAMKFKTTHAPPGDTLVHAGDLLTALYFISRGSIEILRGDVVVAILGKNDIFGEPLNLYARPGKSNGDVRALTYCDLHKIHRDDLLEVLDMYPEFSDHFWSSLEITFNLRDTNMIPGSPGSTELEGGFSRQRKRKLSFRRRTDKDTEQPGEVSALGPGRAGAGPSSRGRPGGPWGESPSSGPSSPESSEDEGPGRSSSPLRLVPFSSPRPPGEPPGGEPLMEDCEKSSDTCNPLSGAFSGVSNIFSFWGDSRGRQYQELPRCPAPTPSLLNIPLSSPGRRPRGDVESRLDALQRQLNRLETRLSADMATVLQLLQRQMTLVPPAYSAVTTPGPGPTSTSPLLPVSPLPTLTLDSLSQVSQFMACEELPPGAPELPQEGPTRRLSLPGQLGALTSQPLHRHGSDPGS
row,SMILES,"hERG current change (%, negative = inhibition) at 10uM [%]"
1,O=C(C1=C[C@H](c2ccc3c(c2)OCO3)C[C@H](OCc2ccc(CO)cc2)O1)N1CCN(Cc2ccc3c(c2)OCO3)CC1,-17.2
2,Cc1ccccc1NS(=O)(=O)c1ccc(C(=O)N2CCCC2)cc1,12
3,Clc1ccc(CSc2ncn(-c3ccccc3)n2)cc1,0.168
4,C#CCSc1[nH]c(=O)cc(C)c1C#N,19.3
5,COC(=O)c1ccc(NC(=O)c2cc[n+](Cc3ccccc3)cc2)cc1.[Cl-],19
6,COC(=O)c1ccc(COn2c(=O)c(C)[n+]([O-])c3ccccc32)cc1,-3
7,CCOc1ncccc1C(=O)Nc1ccc(Cl)cc1,-3.29
8,COc1ccc(CCNC(=O)CSc2cn(Cc3cccc(C)c3)c3ccccc23)cc1OC,4.67
9,COc1ccc(Nc2nc(-c3ccncc3)nc3ccccc23)cc1,13.1
10,CC(NC(=S)Nc1c(Cl)cccc1OC(F)F)C(C)(C)C (centres unmarked),-2.76
11,COc1ccc(C(C)=O)cc1CN1C(=O)NC(c2ccccc2)(c2ccccc2)C1=O,0.9
12,COc1nc(N)c(S(=O)(=O)c2ccccc2)cc1C#N,-19
13,COc1ccc(/C=C/C(=O)N2CCN(c3ccccn3)CC2)cc1OC,-9.7
14,C#CCNC(=O)C1=C[C@@H](c2ccc3c(c2)OCO3)C[C@@H](OCc2ccc(CO)cc2)O1,-11.2
15,Cc1ccc(S(=O)(=O)N(C)C)cc1-n1c(SCC(=O)Nc2ccc(F)cc2)nc2ccccc2c1=O,-4.96
16,Cc1ccc(CCNC(=O)c2sc3nc4n(c(=O)c3c2C)CCC4)cc1,-26.7
17,CC1CN(C(=O)C2CCCC2)C(C)CN1C(=O)C1CCCC1 (centres unmarked),12.8
18,COc1ccccc1NC(=O)c1sc2ncn(Cc3ccccc3C)c(=O)c2c1C,10.4
19,CCOC(=O)c1c(C)[nH]c(C)c1C(=O)COC(=O)c1ccc(S(=O)(=O)N(CC)CC)cc1,-3.99
20,COc1ccccc1NC(=O)CN1CCN(CC(=O)Nc2ccc3c(c2)OCO3)CC1,-72
21,CCOC(=O)C1(CCc2ccccc2)CCN(Cc2cnc(N(C)C)s2)CC1,-83
22,CCN(CC)C(=O)c1c(C)[nH]c(=S)c(C#N)c1-c1ccco1,14.6

row,SMILES,"hERG current change (%, negative = inhibition) at 10uM [%]"
1,COc1cc(CNc2ccc(N3CCCC3)cc2)ccc1OCc1ccccc1F,31.8
2,O=C(Nc1ccccc1C(=O)N1CCN(Cc2ccccc2)CC1)c1ccccc1,-5.07
3,CC1(C)Oc2ccc(/C=C/C(=O)N3CCOCC3)c(O)c2C(N2CCOCC2)C1O (centres unmarked),1.68
4,O=C(NNC(=O)c1ccc2ccccc2c1O)c1ccccc1Cl,4.02
5,O=C(CC(NC(=O)c1ccccc1)c1ccccc1)Nc1cccc2ccccc12 (centres unmarked),24.1
6,Cc1ccc(NC(=O)Cn2cnc([N+](=O)[O-])c2)cc1C,2.82
7,Cc1noc(C)c1COC(=O)CCC(=O)c1ccc(F)cc1,0.0774
8,CCNc1ccc(Br)cc(C(=O)/C=C/c2c(Cl)cccc2Cl)c1=O,3.03
9,COc1cccc(C2c3c(oc4cc(C)c(C)cc4c3=O)C(=O)N2CCCN(C)C)c1 (centres unmarked),-25.9
10,CCOc1ccc(-c2nc(CSCC(=O)NCc3ccco3)c(C)o2)cc1,-20.7
11,CCOC(=O)C1(C)/C(=N/Nc2ccccc2OC)C(=O)C(=O)N1c1ccccc1 (centres unmarked),4.48
12,O=C(O)C1Nc2ccc(C(F)(F)F)cc2C2OCCC12 (centres unmarked),6.25
13,COc1ccccc1CNC(=O)CN1C(=O)C(C)N(c2ccc(C)cc2)C1=O (centres unmarked),-13.8
14,CCCOc1ccc(-c2c(C(=O)N/N=C(\C)c3ccncc3)nnn2-c2nonc2N)cc1,18.4
15,C/C(=N\Nc1nnc(-c2ccccc2)c(-c2ccccc2)n1)c1cccc([N+](=O)[O-])c1,-4.9
16,CC(=O)Nc1ccc(NC(=O)c2ccccc2N(Cc2ccccc2)S(C)(=O)=O)cc1,3.05
17,Cc1ccccc1-n1nnnc1SCc1csc(-c2ccccc2)n1,-1.68
18,COc1cc(C(=O)OCC(=O)NCc2ccco2)cc(OC)c1OC,1.04
19,O=C(Nc1ccc(F)cc1)NC1CCCc2ccccc21 (centres unmarked),25.5
20,O=S(=O)(NC(=S)NC1CCCCC1)c1cccs1,18.5
21,CCN1CCN(Cc2ccc(NC(=O)c3ccc(C)c(NC(=O)c4ccno4)c3)cc2C(F)(F)F)CC1,-2.76
22,COc1ccc(-n2c(C)c(C)c3c(NCCN(C)C)ncnc32)cc1,-32.4

row,SMILES,"hERG current change (%, negative = inhibition) at 10uM [%]"
1,CCN1CCN(C(=O)CN(c2cccc(Br)c2)S(=O)(=O)c2ccccc2)CC1,-37.5
2,Clc1ccc(-n2nnnc2-c2ccccc2)cc1,-0.933
3,O=C(/C(=C/O)N=Nc1ccccc1)c1ccco1,6.46
4,COC(=O)c1cc(-c2ccc(C)cc2)n[nH]1,-0.0688
5,COc1cc(CC(=O)OCC(=O)Nc2cc(S(=O)(=O)N3CCCC3)ccc2Cl)cc(OC)c1OC,-11.2
6,CSc1nc2c(c(=O)[nH]1)C(c1ccc(Cl)cc1)CC(=O)N2 (centres unmarked),20.5
7,O=C(CCNC(=O)c1ccc(Cl)cc1)Nc1c(F)c(F)cc(F)c1F,1.93
8,CC(=O)Oc1ccc(C(=O)N2c3ccccc3NC(=O)C2C)cc1 (centres unmarked),7.6
9,Cc1ccc2c(c1)C(c1ccccc1)=NCC(=O)N2C,3.88
10,O=C(Nc1ccc(Cl)c(C(F)(F)F)c1)NC1CC2CCCC(C1)N2Cc1ccccc1 (centres unmarked),-71
11,COC(=O)c1ccc2c(=O)n(CCCN3CCOCC3)c(=S)[nH]c2c1,-3.53
12,COc1ccc2c(C)cc(SCC(=O)Nc3cccnc3Cl)nc2c1,10.3
13,O=C(NCc1ccccc1)C(c1cccnc1)N(C(=O)c1csnn1)c1ccc(F)cc1 (centres unmarked),-12.5
14,COCCCNC(=O)Cn1c(=O)n(CC(=O)N2CCCCC2)c(=O)c2sccc21,12.1
15,COCCNC(=O)C1CC(c2cccc([N+](=O)[O-])c2)=NO1 (centres unmarked),15.8
16,c1nc(Nc2ccc(N3CCOCC3)cc2)c2ccsc2n1,-7.59
17,COc1ccc(N=N/C(=C\O)C(=O)c2ccco2)cc1,3.51
18,O=c1c2ccccc2[nH]c2ccc(F)cc12,17.8
19,COc1ccc(NS(=O)(=O)c2cccc3nsnc23)cc1Cl,11.2
20,CN(C(=O)COC(=O)C1COc2ccccc2O1)c1c(N)n(Cc2ccccc2)c(=O)[nH]c1=O (centres unmarked),2.18
21,O=c1c2ccccc2oc2nc(C3CCCCC3)n(Cc3ccco3)c(=O)c12,-16.3
22,COc1ccccc1NC(=O)c1nnn(Cc2ccccc2)c1NC(C)=O,2.36

row,SMILES,"hERG current change (%, negative = inhibition) at 10uM [%]"
1,COc1cc(C(=O)N2CCN(C)C(C)C2)ccc1OC1CCN(C(C)=O)CC1 (centres unmarked),7.3
2,Cc1cc(C)c[n+](C[n+]2cc(C)cc(C)c2)c1.[Br-],9.57
3,Clc1cccc(Nc2ncnc3ccc(Br)cc23)c1,-5
4,CCN1CCc2c(sc(NC(=O)c3ccc(S(=O)(=O)N4CCOCC4)cc3)c2C(=O)OC)C1.Cl,-42.2
5,COc1ccccc1NC(=O)c1cccc(N2C(=O)C3C4C=CC(C4)C3C2=O)c1 (centres unmarked),-8.28
6,CN(C(=S)Nc1ccccc1)c1ccccc1,-3.7
7,COc1ccc2nc(NC(=O)c3ccc(-c4cccc([N+](=O)[O-])c4)o3)sc2c1,18
8,O=C(Nc1ccccc1)c1ccccc1OCC(O)CN1C(=O)c2ccccc2S1(=O)=O (centres unmarked),-8.85
9,O=C(NNC(=O)c1ccc(Cl)c(S(=O)(=O)Nc2ccc(Cl)cc2)c1)c1ccc(=O)[nH]c1,8.75
10,Cc1ccc(S(=O)(=O)N2CCOC2CNC(=O)C(=O)NCc2ccccc2)cc1 (centres unmarked),-10.3
11,O=C(CS(=O)(=O)c1ccccc1)N1CCc2ccccc21,-8.39
12,O=C(CSc1nnc(-c2cccnc2)o1)NNC(=O)c1ccc(Br)cc1,2.19
13,O=C1CCC(C(=O)NCCCn2ccnc2)N1 (centres unmarked),10.7
14,COc1cc2c(cc1OC)CN(C(=O)Nc1ccccc1)CC2,16.2
15,O=c1[nH][nH]c(C(F)(F)F)c1C=Nc1ccccc1,11.6
16,O=C(NCCN1CCOCC1)c1ccc(NC(=O)C2COc3ccccc3O2)cc1 (centres unmarked),13.5
17,O=C(C1CCCN(S(=O)(=O)c2ccc(Cl)cc2)C1)N(Cc1cccs1)C1CC1 (centres unmarked),-63
18,COc1ccc(NC(=O)c2cc3c(CO)cnc(C)c3oc2=Nc2cc(OC)cc(OC)c2)cc1,29
19,O=C(OCc1ccccc1)C1CCCN1C(=O)c1cccs1 (centres unmarked),-1.75
20,COc1ccc(/C=C(\NC(=O)c2ccc([N+](=O)[O-])cc2)C(=O)NCCCN2CCOCC2)cc1,-77
